Data: PubChem BioAssay AID1159614 (National Center for Advancing Translational Sciences (NCATS), 2016)
Out of some 45,000 compounds screened, about 65 (0.1%) were called active. Calls follow the shape of the dose curve; as a rule, active = well fitted activation curve with a large enough effect; inconclusive = small, poorly fitted or top-dose-only effect; inactive = no such curve, though single readings can be large or run the other way. This is one part of the list.

target: Galactocerebrosidase (Homo sapiens) (UniProt P54803); experiment: A Novel Cell-Based Assay to Identify Small Molecules for B -Galactocerebrosidase; conditions: 145M-Twi-hGALC-G270D cells (Twitcher mouse brain line with human GALC G270D), HMU-beta-Gal fluorescence, 48 h; series mostly up to 57.5 µM; activation: at the top concentration; also: 0% is about no effect; nearly all actives have a fitted effect of over 65% in size
Sequence of UniProt P54803 (P54803 whole entry, looked up): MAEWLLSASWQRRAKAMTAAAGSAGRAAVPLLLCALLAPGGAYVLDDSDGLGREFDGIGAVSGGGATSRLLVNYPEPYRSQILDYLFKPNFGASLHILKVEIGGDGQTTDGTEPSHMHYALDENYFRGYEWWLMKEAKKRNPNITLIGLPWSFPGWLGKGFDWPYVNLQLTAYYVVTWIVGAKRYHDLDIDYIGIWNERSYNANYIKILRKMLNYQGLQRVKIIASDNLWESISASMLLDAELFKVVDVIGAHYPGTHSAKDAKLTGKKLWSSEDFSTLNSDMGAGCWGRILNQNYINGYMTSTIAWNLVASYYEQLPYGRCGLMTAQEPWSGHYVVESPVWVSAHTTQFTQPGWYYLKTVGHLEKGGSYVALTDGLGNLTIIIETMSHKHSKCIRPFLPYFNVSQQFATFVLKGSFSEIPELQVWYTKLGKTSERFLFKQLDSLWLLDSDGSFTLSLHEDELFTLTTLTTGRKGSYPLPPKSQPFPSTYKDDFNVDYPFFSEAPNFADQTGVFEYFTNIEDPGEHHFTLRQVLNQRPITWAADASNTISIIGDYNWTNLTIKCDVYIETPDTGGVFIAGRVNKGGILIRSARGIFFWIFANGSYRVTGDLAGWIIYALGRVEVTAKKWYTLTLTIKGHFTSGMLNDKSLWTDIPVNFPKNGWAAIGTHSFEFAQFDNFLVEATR
Procedure, shortened: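 Fluorescence readout: HMU-β-gal cleavage by mutant GALC (0.1 mM final, citrate/phosphate pH 5.2 with 1 mg/mL taurocholate), stopped with carbonate/bicarbonate plus Triton X-100. Cells: murine Twitcher 145M-Twi expressing human G270D GALC; qHTS for activators.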

activation, inactive:
CCc1ccc(NC(=O)C(CC)n2nnc(C(=O)OC)c2C(=O)OC)cc1 (stereo not given) -31.2%
CCOc1ccc(-n2nc3cc(C)c(NC(=O)CC)cc3n2)cc1 -22.6%
CN(C)C/C=C(/c1ccc(Br)cc1)c1cccnc1 -8.25%
CCC(CO)Nc1ncnc2c1cnn2-c1ccc(C)cc1 (stereo not given) -8.7%
CCOc1ccccc1CNC(=O)c1cnc2sc(N3CCCC3)nn2c1=O -0.344%
CCOCCCn1c(SCC(=O)Nc2cccc(OC)c2)nc2ccccc2c1=O 3.15%
COc1ccccc1NC(=O)C1CCN(S(=O)(=O)c2ccc3c(c2)oc(=O)n3C)CC1 -10.7%
Cc1ccc(Cl)cc1Nc1nn2c(=O)c3ccc(C(=O)NCc4cccs4)cc3nc2s1 -6.79%
CCCN1C(=O)c2ccccc2CC1(C)C(=O)NC1CCCCC1 (stereo not given) -7.67%
Cc1ccc(NC(=O)N2CCN(c3nnc(C)c4c(C)n(-c5ccccc5)nc34)CC2)cc1Cl -15.2%
Cc1ccc2nc(N(Cc3cccnc3)C(=O)c3ccc4c(c3)OCCO4)sc2c1 -18.9%
CCN(c1ccc(Cl)cc1)S(=O)(=O)c1nnc(NC(=O)C2CCCCC2)s1 -20.6%
CCOCCc1nn2c(=O)cc(COC(=O)c3cccs3)nc2s1 -6.35%
O=C(NCc1ccc2c(c1)OCO2)c1ccc2c(c1)N(Cc1ccc(F)cc1)C(=O)c1ccccc1S2=O (stereo not given) -12.8%
NC/C=C/C(=O)O -13.7%
Cc1ccc(C)c(CN2CCC(CNC(=O)Cn3ncc4c([nH]c5ccccc54)c3=O)CC2)c1 -9.61%
O=C(NCCCN1CCOCC1)c1ccc2c(c1)N(Cc1ccccc1)C(=O)c1ccccc1S2 -8.15%
CCn1c2ccccc2c2nnc(N3CCN(c4cccc(C)c4C)CC3)nc21 -13.6%
O=C(Cn1nc(N2CCN(c3ccccc3)CC2)ccc1=O)NCc1cccc(Cl)c1 -0.393%
Cc1cccc(OCCCCn2nnc3sc4c(c3c2=O)CCC(C)C4)c1 (stereo not given) -14.9%
CCOc1ccccc1CNC(=O)CN1C(=O)CCCc2ccccc21 -12.4%
Cc1ccc(-n2ncc3c(NCCc4ccccc4)ncnc32)cc1C -9.82%
CCOC(=O)CSc1nc2sc3c(c2c(=O)n1Cc1ccccc1)CC(C)CC3 (stereo not given) -21.1%
CCOc1ccc(NC(=O)NC(C)c2c(-n3cccc3)sc(C)c2C)cc1 (stereo not given) -8.84%
COc1ccc(-n2c(/C=C/c3cc(OC)c(OC)cc3OC)nc3cc4ccccc4cc3c2=O)cc1Cl -13.7%
CCN(CC)CCNC(=O)C1CCN(S(=O)(=O)c2c(C)noc2/C=C/c2ccccc2F)CC1 -6.75%
Cc1ccc(OCCSc2nc3ccc(NC(=O)COc4ccc(F)cc4)cc3s2)cc1 -17.5%
O=C(COc1ccccc1)Nc1ccc(C(=O)OCc2cc(=O)n3nc(C4CC4)sc3n2)cc1 -17.2%
Cc1nc2nc(SCC(=O)NCc3ccccc3)nn2c(C)c1Cc1ccccc1Cl -8.21%
Cc1cc(C)n2c(Nc3c(C)cccc3C)c(-c3ccsc3)nc2n1 -16.2%
O=C(CN1CCCN(Cc2ccccc2Cl)S1(=O)=O)Nc1ccc2c(c1)OCCO2 -2.2%
CCOC(=O)c1cc(-c2ccc(F)cc2)n(CC(=O)NC2CCCCC2)c1C -21.8%
O=C(Cc1cccs1)NC1CC(=O)N(c2ccccc2)C1 (stereo not given) -2.77%
CCc1cccc(C)c1NC(=O)CN1CCCN(Cc2ccc(C)cc2)S1(=O)=O -13%
COc1ccc(-c2c(C)nn3c(C(F)(F)F)cc(-c4ccc(Br)cc4)nc23)cc1 -9.87%
CCOc1ccc(CCNC(=O)c2ccc(CS(=O)(=O)Cc3ccccc3Cl)o2)cc1OCC -7.6%
Cc1ccccc1CN1CCc2nc(Nc3ccc4c(c3)OCCO4)ncc2C1 -6.11%
Cc1ccc2c(c1)c1c3n2CCNC3CCC1 (stereo not given) -7.78%
CCN(C(=O)COc1cc(=O)n(C)c2ccccc12)c1cccc(C(F)(F)F)c1 -16.2%
CCOc1ccc(-c2ccc(NS(=O)(=O)c3cc(C)c(C)cc3C)cc2)nn1 -12.5%
CCOc1ccc(C(=O)Nc2ccc(-c3nc4cc(CC)ccc4o3)cc2)cc1 -12.3%
CC(NC(=O)CCn1c(=O)c2cccn2c2ccc(F)cc21)c1ccccc1 (stereo not given) -10.6%
O=C(c1cc2c(=O)[nH]c3ccccc3c2s1)N1CCN(c2ccc(F)cc2)CC1 -2.02%
O=C(CCn1c(=O)c2cccn2c2ccc(F)cc21)NCCc1ccccc1Cl -12.3%
COC(=O)c1ccc(NC(=O)Nc2nnc(N(C)C3CCCCC3)s2)cc1 -13.6%
CCCOc1ccc(Nc2nc(SC)ncc2C(=O)OCC)cc1 -25%
COc1ccccc1NC(=O)Cn1c(=O)n(Cc2ccccc2)c(=O)c2ccccc21 -17.9%
COc1ccc(NC(=O)C(=O)NCCc2csc(-c3ccc(Cl)cc3)n2)cc1 -4.42%
COc1cccc2c1Oc1nc(-c3ccccc3)nc(SCC(=O)N3CCCCC3)c1C2 -12.7%
COc1cccc(NC(=O)c2oc3ccccc3c2NC(=O)C23CC4CC(CC(C4)C2)C3)c1 -20.6%
COC(=O)c1ccc(NC(=O)Cc2coc3cc(C)ccc23)cc1 -5.49%
Cc1cc(C)cc(-n2c(SCC(=O)Nc3nnc(C)s3)nc3c([nH]c4ccccc43)c2=O)c1 -22.1%
COc1ccc(-c2nc3nc(C)cc(Nc4ccc(C(C)=O)cc4)n3n2)cc1 -6.52%
Cc1coc2c(C)c3oc(=O)c(CC(=O)N4CCCCC4)c(C)c3cc12 -15.2%
COC(=O)CSc1ccc2nnc(CCNS(=O)(=O)c3ccc(C)cc3)n2n1 -9.71%
CCOC(=O)C1=C(CN2CCN(c3ccccc3F)CC2)NC(=O)NC1c1ccc(OC)cc1 (stereo not given) -13.3%
CCc1cccc(C)c1Nc1c(-c2cccc(O)c2)nc2cnccn12 -5.65%
O=C(CCS(=O)(=O)c1cc2c3c(c1)CCN3C(=O)CC2)NCc1ccc(Cl)cc1 -3.35%
COc1ccc(/C=C/c2nc(C#N)c(NC3CCCCC3)o2)cc1OC -7.77%
CCOc1ccccc1NC(=O)Cn1nc2c3cc(F)ccc3n(Cc3cccc(C)c3)cc-2c1=O -31.8%
COc1ccccc1CNC(=O)Cn1c(-c2cccs2)cc2cc(F)ccc21 -12%
Cc1ccc(C)c(NC(=O)C(=O)NCCc2csc(-c3cccc(F)c3)n2)c1 -20.2%
Cn1c(=O)cc(SCC(=O)Nc2cccc(C#N)c2)c2ccc(Cl)cc21 -12.2%
CCOC(=O)c1ccc(NC(=O)c2cc3c(=O)n(C)c4ccccc4c3n2C)cc1 -5.23%
Cc1nc2ccccn2c(=O)c1NC(=O)c1ccccc1Cl -8.33%
COc1cc2c(C(=O)N3CCN(c4ccc(C)cc4)C(C)C3)cn(CC(C)C)c(=O)c2cc1OC (stereo not given) -10.1%
COc1cccc(NC(=O)CCc2nc(-c3cc(OC)c(OC)c(OC)c3)no2)c1 -19%
COc1ccc(CCNC(=O)c2cc(-c3ccc(Cl)cc3)on2)cc1OC -15.1%
COc1ccc(C(=O)N2CCC(c3ccncc3)CC2)cc1OC -10.8%
CCc1ccc(NC(=O)Cn2ccn(-c3cccc(Cl)c3)c(=O)c2=O)cc1 -7.49%
Cc1ccc(CN2CCc3nc(N4CCN(C)CC4)ncc3C2)cc1 -3.87%
COC(=O)C1=C(C)NC(C)=C(C(=O)O[C@@H]2CCCN(Cc3ccccc3)C2)[C@@H]1c1cccc([N+](=O)[O-])c1 -11%
COc1ccc(N2CCN(C(=O)Cc3noc4ccc(C)cc34)CC2)cc1 -11.1%
COc1cc2c(cc1OC)C(COc1ccc3c(C)cc(=O)oc3c1)N(C(=O)c1ccc(C)c(C)c1)CC2 (stereo not given) 4.52%
COC(=O)c1ccc(OC)c(CN2CCCN(Cc3ccc(C)cc3)S2(=O)=O)c1 -33.4%
Cc1nc2sccn2c(=O)c1S(=O)(=O)NCc1ccccc1 -12.4%
COc1ccc(Nc2nnc(-c3ccc(C)c(S(=O)(=O)N4CCN(C)CC4)c3)c3ccccc23)cc1 -15.5%
CCOc1ccccc1C1CC(=O)NC(C)=C1C(=O)OCc1ccc(C)cc1 (stereo not given) -4.96%
Cc1ccc(C)c(N2CCN(C(=O)c3ccc4c(c3)c(C)c(C)n4C)CC2)c1 -24.8%
Cc1cccc(C)c1OCC(=O)N(Cc1ccc(Cl)cc1)CC1CCCO1 (stereo not given) 0.4%
Cc1oc2c(c1C(=O)Nc1ccc(Cl)cc1F)C1=NCCN1C=N2 8.95%
COc1ccc(Cl)cc1C(=O)NCC(c1ccc(N(C)C)cc1)N1CCOCC1 (stereo not given) -13.6%
CC(C)c1nn2c(=O)cc(COC(=O)c3ccccc3NC(=O)c3cccs3)nc2s1 -16.6%
O=C(O)CCNC(=O)c1ccccc1 -15.7%
Cn1c(=O)c2c(nc(NCCc3ccccc3)n2Cc2ccc(Cl)c(Cl)c2)n(C)c1=O -14.8%
CC1CCCN(c2csc3ccccc3c2=O)C1 (stereo not given) -18.7%
CCCN(Cc1cccs1)C(=O)Nc1ccccc1C -9.5%
O=C(N[C@H](CO)[C@H](O)c1ccc([N+](=O)[O-])cc1)C(Cl)Cl -14.9% [at 114 µM]
COc1ccc(S(=O)(=O)NCCc2cn3ccsc3n2)cc1OC -4%
CCOc1ccc(N(Cc2cc3cc(C)ccc3[nH]c2=O)C(=O)c2cccc(Cl)c2)cc1 26.6%
COc1ccc(NC(=O)CC2C(=O)N(c3ccc(OC)cc3)C(=O)N2C2CCCCC2)cc1 (stereo not given) -15.1%
Cc1c(Cl)cccc1-n1c(SCC(=O)NCc2ccccc2)nc2n[nH]c(C)c2c1=N -6.22%
COc1cccc(C(=O)N2CC(=O)Nc3ccc(C)cc3C2c2ccc(F)cc2)c1OC (stereo not given) -21.3%
Cc1ccc(Nc2cc(=O)[nH]c(=O)[nH]2)cc1C -10%
Cc1ccc2oc(=O)c(-c3nc4ccc(C)cc4[nH]3)cc2c1 -6.46%
COc1ccc(OC)c(CNC(=O)CCc2c(C)nc3c(c2C)c(=O)n(C)c(=O)n3C)c1 -14.2%
CCCOc1ccc(CNC(=O)C(C)n2nc(C)n3c(cc4occc43)c2=O)cc1 (stereo not given) -13.1%
COc1ccc(Cl)cc1NC(=O)CSc1nnc(C)n2c1cc1sccc12 -9.23%
Cc1ccc(C(=O)N2c3ncnn3C3(CCCCC3)[C@@H]3CCCC[C@@H]32)cc1 -10%
Cn1c2c(c(=O)n(C)c1=O)C(c1cc(Br)ccc1F)CC(=O)N2 (stereo not given) -11.4%
